Article PMC13280575
No constants are given. Whether binding was seen depends on the method and setting. For some of these results: In cells and extracts the contact can be indirect. Some results given as binding are weak or reduced against the parent protein; the word gives no strength. For some of these results: Sequences can lack the tags named with a protein.

Sequences of proteins named here, by UniProt entry; tags and fusion partners are left off. Residues count along the entry.
(myc)6-BRCA1 (1–400), in vitro translated (P38398, residues 1-400): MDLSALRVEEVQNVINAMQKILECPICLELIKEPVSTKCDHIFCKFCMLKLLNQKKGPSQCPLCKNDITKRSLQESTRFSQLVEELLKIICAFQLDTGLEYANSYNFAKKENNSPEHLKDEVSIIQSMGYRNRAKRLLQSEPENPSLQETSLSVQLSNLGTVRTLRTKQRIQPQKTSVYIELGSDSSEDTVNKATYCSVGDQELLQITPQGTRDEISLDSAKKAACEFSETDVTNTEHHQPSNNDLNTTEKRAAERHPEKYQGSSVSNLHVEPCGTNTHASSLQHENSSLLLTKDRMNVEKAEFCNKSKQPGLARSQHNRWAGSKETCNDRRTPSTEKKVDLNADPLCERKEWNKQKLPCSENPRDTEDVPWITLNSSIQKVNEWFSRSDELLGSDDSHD
FLAG-BRCA1 (1–178), in vitro translated (P38398, residues 1-178): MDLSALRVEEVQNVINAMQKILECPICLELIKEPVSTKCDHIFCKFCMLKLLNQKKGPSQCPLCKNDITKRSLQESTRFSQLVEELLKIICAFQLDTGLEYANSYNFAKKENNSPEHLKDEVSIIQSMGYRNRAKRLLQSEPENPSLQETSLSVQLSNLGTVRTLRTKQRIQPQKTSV

Tests used:
[1] = target: T1, GST-PER2(575–682) (human) (UniProt O15055); test: condition: 20 μg GST fusion protein, 3 μL in vitro translated protein; pull-down; 20 μg GST fusion protein on glutathione-Sepharose beads with 3 μL in vitro translated [35S]-labelled protein; 20 mM Tris-HCl pH 7.4, 100 mM NaCl, 5 mM EDTA, 0.1 % Triton X-100; 1 h at 4 °C; washes with 100 mM and 1 M NaCl; autoradiography; only the target purified
T1 sequence: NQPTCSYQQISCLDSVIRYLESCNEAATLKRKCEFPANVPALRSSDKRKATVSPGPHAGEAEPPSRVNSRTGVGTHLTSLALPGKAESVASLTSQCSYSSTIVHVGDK

[2] = target: T2, GST-PER2(173–355) (human) (UniProt O15055); test: as above
T2 sequence: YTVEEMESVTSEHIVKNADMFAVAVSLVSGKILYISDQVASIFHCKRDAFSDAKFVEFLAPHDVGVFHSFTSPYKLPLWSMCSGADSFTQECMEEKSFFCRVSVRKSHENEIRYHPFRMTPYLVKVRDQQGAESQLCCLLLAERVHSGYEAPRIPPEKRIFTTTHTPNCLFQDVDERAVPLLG

[3] = target: T3, GST-PER2(1–172) (human) (UniProt O15055); test: as above
T3 sequence: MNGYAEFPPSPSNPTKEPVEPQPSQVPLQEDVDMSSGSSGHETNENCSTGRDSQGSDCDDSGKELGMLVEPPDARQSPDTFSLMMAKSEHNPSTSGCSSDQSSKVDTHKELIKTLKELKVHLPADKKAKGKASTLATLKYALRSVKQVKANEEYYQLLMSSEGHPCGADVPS

[4] = target: T4, GST-PER2(1121–1255) (human) (UniProt O15055); test: as above
T4 sequence: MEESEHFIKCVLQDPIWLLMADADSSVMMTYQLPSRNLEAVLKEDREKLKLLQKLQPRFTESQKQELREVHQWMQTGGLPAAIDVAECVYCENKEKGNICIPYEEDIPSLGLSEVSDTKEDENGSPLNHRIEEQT

[5] = target: T5, GST-PER2(873–1120) (human) (UniProt O15055); test: as above
T5 sequence: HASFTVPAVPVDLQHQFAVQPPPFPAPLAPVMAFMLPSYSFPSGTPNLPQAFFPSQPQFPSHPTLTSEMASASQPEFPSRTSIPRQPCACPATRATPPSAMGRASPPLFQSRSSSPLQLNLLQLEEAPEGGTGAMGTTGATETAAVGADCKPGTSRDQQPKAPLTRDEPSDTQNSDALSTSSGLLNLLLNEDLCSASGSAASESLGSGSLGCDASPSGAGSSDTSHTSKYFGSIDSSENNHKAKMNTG

[6] = target: T6, GST-PER2(356–574) (human) (UniProt O15055); test: pull-down; 20 μg GST fusion protein on glutathione-Sepharose beads with 3 μL in vitro translated [35S]-labelled protein; 20 mM Tris-HCl pH 7.4, 100 mM NaCl, 5 mM EDTA, 0.1 % Triton X-100; 1 h at 4 °C; washes with 100 mM and 1 M NaCl; autoradiography; only the target purified
T6 sequence: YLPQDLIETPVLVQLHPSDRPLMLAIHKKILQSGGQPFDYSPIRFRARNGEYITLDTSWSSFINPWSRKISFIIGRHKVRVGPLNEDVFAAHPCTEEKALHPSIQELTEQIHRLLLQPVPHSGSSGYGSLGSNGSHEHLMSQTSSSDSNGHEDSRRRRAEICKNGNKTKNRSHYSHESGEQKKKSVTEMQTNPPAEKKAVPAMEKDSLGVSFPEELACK

[7] = target: T7, GST-PER2(683–872) (human) (UniProt O15055); test: as above
T7 sequence: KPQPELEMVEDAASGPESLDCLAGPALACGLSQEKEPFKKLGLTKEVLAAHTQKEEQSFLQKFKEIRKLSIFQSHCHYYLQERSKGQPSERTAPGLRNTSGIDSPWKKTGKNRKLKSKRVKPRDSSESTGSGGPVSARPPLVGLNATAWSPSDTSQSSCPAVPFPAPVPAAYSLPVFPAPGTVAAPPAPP

[8] = target: T8, pBT-PER2 (residues 1-1255), full-length human PER2 bait (human) (UniProt O15055); test: two-hybrid; BacterioMatch II bacterial two-hybrid screen: PER2 bait in pBT against a human liver cDNA library in pTRG; selection on 5 mM 3-AT, then 3-AT plus streptomycin; 37 °C
T8 sequence: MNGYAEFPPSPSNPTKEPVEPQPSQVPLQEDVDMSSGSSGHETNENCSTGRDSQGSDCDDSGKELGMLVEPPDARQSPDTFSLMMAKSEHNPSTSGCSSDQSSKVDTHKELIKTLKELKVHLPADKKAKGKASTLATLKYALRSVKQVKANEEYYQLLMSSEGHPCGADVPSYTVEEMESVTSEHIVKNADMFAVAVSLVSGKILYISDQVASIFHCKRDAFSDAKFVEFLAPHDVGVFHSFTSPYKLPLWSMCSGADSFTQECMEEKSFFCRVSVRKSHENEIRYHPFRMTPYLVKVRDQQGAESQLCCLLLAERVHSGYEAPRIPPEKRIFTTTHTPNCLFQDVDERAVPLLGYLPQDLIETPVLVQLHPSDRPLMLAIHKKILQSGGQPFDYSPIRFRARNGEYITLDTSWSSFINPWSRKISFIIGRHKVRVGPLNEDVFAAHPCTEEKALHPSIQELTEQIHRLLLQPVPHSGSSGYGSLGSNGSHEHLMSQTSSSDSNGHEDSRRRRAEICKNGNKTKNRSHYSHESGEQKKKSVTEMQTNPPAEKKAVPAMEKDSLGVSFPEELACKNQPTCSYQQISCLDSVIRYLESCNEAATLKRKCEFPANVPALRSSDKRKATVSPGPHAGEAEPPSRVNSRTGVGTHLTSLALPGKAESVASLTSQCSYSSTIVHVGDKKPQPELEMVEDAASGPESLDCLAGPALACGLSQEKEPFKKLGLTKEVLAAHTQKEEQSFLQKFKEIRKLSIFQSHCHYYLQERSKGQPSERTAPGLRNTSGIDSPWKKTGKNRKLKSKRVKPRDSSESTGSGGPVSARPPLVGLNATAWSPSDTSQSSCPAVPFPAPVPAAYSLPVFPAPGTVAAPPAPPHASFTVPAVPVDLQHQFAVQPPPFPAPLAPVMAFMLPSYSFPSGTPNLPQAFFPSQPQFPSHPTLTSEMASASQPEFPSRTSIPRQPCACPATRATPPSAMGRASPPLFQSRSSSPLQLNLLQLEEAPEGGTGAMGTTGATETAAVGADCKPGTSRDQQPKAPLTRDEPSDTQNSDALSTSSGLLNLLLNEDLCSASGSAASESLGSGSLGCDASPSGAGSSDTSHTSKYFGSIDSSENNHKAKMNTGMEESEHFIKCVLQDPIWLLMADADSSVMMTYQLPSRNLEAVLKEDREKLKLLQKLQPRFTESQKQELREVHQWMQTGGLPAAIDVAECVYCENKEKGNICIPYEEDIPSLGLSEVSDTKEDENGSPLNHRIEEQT

[9] = target: T9, PER2(683–872) bait in pBT (human) (UniProt O15055); test: two-hybrid; BacterioMatch II bacterial two-hybrid, direct co-transformation of defined pBT-PER2 baits and pTRG-BRCA1 preys; growth on Tet/Cam, Tet/Cam/3-AT and Tet/Cam/3-AT/Str
T9 sequence: T7 sequence

[10] = target: T10, PER2(822–1255) bait in pBT (human) (UniProt O15055); test: as above
T10 sequence: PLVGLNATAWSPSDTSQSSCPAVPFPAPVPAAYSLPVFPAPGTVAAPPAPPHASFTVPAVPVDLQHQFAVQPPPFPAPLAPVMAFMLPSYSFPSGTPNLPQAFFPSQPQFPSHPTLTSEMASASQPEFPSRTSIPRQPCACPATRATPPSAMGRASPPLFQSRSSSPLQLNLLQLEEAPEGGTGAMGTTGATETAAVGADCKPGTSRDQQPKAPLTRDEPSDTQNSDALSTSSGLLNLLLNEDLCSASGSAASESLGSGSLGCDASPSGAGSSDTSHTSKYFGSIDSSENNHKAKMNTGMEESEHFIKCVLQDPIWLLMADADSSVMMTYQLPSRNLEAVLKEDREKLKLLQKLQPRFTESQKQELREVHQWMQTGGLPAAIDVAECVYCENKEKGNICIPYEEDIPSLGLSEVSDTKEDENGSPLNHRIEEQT

[11] = target: T8, pBT-PER2 (residues 1-1255), full-length human PER2 bait (human); test: as above
[12] = target: T11, PER2(356–574) bait in pBT (human) (UniProt O15055); test: as above
T11 sequence: T6 sequence

Substance	binding [1]	binding [2]	binding [3]	binding [4]	binding [5]	binding [6]	binding [7]	binding [8]	binding [9]	binding [10]	binding [11]	binding [12]
FLAG-BRCA1 (1–178), in vitro translated (from UniProt P38398 1-178) (domain or fragment)	no binding	no binding	no binding	no binding	no binding	binds	binds	–	–	–	–	–
BRCA1 residues 1–400 (N-terminal domain) prey in pTRG (from UniProt P38398 1-400) (domain or fragment)	–	–	–	–	–	–	–	binds	binds	binds	binds	binds
(myc)6-BRCA1 (1–400), in vitro translated (from UniProt P38398 1-400) (domain or fragment)	no binding	no binding	no binding	no binding	no binding	binds	binds	–	–	–	–	–
